Here are results for 1 molecule from PubChem BioAssay AID624202 (National Center for Advancing Translational Sciences (NCATS), 2012).

Out of some 380,000 compounds screened, about 4,000 (1.1%) were called active. About 3% were inconclusive and are not listed. The call rests on the fitted dose curve; in most records, active means well fitted activation curve with a large enough effect; inconclusive means small, poorly fitted or top-dose-only effect; inactive means no such curve, though single readings can be large or run the other way. A structure can be active in one record and inactive in another. Not every entry of the source has a single result; some have several. The other results are left out here. An entry can have further records. The values listed for one entry are repeats in other runs, samples, wells, individuals or studies. What stands in brackets tells the records apart. Letters hold for one entry only.
Potency means the concentration at half of the fitted maximal effect.

A short description of this assay: qHTS Assay to Identify Small Molecule Activators of BRCA1 Expression. Further: nearly all actives have a fitted effect of over 80% in size. As to conditions: MCF7-BRCA1-FFLuc reporter, luminescence, 48 h; series mostly up to 46.1 µM. The text has this: Functionally, BRCA1 has been implicated in a wide array of cellular activities, including DNA damage repair, cell-cycle checkpoint control, growth inhibition, apoptosis, transcriptional regulation, chromatin remodeling, protein ubiquitylation, and mammary stem cell self-renewal and differentiation. Reduction in BRCA1 levels is associated with an increase in tumor growth and resistance to anti-estrogenic agents, such as tamoxifen, while an increase in BRCA1 expression leads to cell growth arrest and apoptosis. […] The frequent loss of BRCA1 expression in invasive breast cancers in the absence of somatic mutation has been attributed to numerous mechanisms, including hypermethylation of the BRCA1 promoter, exaggerated ubiquitylation of BRCA1 protein, and improper intracellular localization. […]
5microl of MCF7-BRCA1-FFLuc cell suspension (400 cells/microl in phenol-red free MEM) are dispensed into Greiner white solid bottom 1536-well assay plates, yielding a final well density of 2000 cells/well. […] The NCGC in-house luciferase substrate reagent, Buglite, is then added (2.5microl) and plates incubated for 15 minutes, before being transferred to a ViewLux high-throughput CCD imager (PerkinElmer) wherein single end-point measurements of luminescence are acquired using a clear filter. […]
For orientation: In qHTS, concentration-response curves come from the screen itself.
For the molecule `CCc1nn(CCCC(=O)NC(C)c2ccccc2)c(=O)c2cc3occc3n12` (stereo unspecified), the Potency entry was “active: 3.16 µM [sample A] and inactive [sample B]”.
